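Compound exposure: 48 hours, 5 concentrations, 96-well plates. TGI is the concentration that stops growth completely.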 Certain results were filed several times, with different values. They are shown here; other results are not. The source may hold further records. The tests behind the records often covered other concentration ranges, which the source does not state; a value can be the end of its range.
Legend:
Assay in all cases: NCI anticancer screen, dose series, 48 h
[1] = test system: TK-10 renal
[2] = test system: LOX IMVI melanoma
[3] = test system: SK-MEL-5 melanoma
[4] = test system: RXF 393 renal
[5] = test system: ACHN renal
[6] = test system: BT-549 breast
[7] = test system: HL-60(TB) leukemia
[8] = test system: MALME-3M melanoma
[9] = test system: HT29 colon
[10] = test system: IGROV1 ovarian
[11] = test system: CAKI-1 renal
[12] = test system: SK-MEL-2 melanoma
[13] = test system: SW-620 colon
[14] = test system: NCI-H522 lung
[15] = test system: NCI-H226 lung
[16] = test system: EKVX NSCLC
[17] = test system: HOP-92 NSCLC
[18] = test system: MOLT-4 leukemia
[19] = test system: UO-31 renal
[20] = test system: MDA-MB-435
[21] = test system: 786-0 renal
[22] = test system: HCT-15 colon

## COc1ccc(C(=O)C#Cc2cnc(OC)nc2OC)cc1
[1]
  TGI: 3.6 µM and 33.6 mM
[2]
  TGI: 356 nM and 34.5 mM
[3]
  TGI: 2.82 µM and 92.6 mM
[4]
  TGI: 3.44 µM and 46.5 mM
[5]
  TGI: 2.92 µM and 32.4 mM
[6]
  TGI: 3.37 µM and 81.6 mM
[7]
  TGI: 7.19 µM and 66.6 mM
[8]
  TGI: 3.44 µM and 34.4 mM
[9]
  TGI: 2.62 µM and 38.6 mM
[10]
  TGI: 3.04 µM and 45.5 mM
[11]
  TGI: 3.09 µM and 64.3 mM
[12]
  TGI: 3.5 µM and 98.7 mM
[13]
  TGI: 2.13 µM and 77.7 mM
[14]
  TGI: 3.13 µM and 30 mM
[15]
  TGI: 3.07 µM and 35.8 mM
[16]
  TGI: 3.51 µM and 57.7 mM
[17]
  TGI: 3.45 µM and 42.1 mM
[18]
  TGI: 202 nM and 53.1 mM
[19]
  TGI: 2.55 µM and 34.6 mM
[20]
  TGI: 10.2 µM and 78.5 mM
[21]
  TGI: 3.85 µM and 38.6 mM
[22]
  TGI: 2.41 µM and 46.2 mM

Source: PubChem BioAssay (NCI)
